{
  "source": "the BET-seq Pho4 binding data (Le et al. 2018)",
  "note": "Some of the results follow. Values were computed here from the reads of four pooled replicates and scatter widely.",
  "data": [
    {"molecular_target": "T1, Pho4 (S. cerevisiae) (UniProt P07270)", "T1 sequence": "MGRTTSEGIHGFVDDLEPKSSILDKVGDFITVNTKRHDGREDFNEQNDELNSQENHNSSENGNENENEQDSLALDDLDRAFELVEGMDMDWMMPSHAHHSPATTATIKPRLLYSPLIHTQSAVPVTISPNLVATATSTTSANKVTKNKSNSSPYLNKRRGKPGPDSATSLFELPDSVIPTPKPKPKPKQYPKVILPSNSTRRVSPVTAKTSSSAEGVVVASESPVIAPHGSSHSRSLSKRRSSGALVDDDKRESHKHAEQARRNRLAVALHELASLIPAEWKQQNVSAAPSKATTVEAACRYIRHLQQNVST", "test": "relative binding free energy (BET-seq); higher = weaker binding", "details": "reference: library average", "units": {"relative binding free energy": "kJ/mol"}, "values": [
      {"sequence": "CCGGTCACGTGGAGGT", "relative binding free energy": 0.0837},
      {"sequence": "GTATACACGTGTACGT", "relative binding free energy": 0},
      {"sequence": "TAATTCACGTGGTGTA", "relative binding free energy": 0.586},
      {"sequence": "GGCCGCACGTGGGGGC", "relative binding free energy": -0.586},
      {"sequence": "AGAATCACGTGTAGGC", "relative binding free energy": 1.72},
      {"sequence": "TGAGACACGTGCGTTG", "relative binding free energy": -0.544},
      {"sequence": "GTTTGCACGTGTACGC", "relative binding free energy": 0.293},
      {"sequence": "AGTGGCACGTGTAGCT", "relative binding free energy": -0.418},
      {"sequence": "GTCGACACGTGTTGTA", "relative binding free energy": 0.502},
      {"sequence": "AGATGCACGTGTCGGT", "relative binding free energy": 0.0837},
      {"sequence": "AGGGTCACGTGTGCGC", "relative binding free energy": 0.502},
      {"sequence": "CGTTTCACGTGTCAGT", "relative binding free energy": 0.837},
      {"sequence": "CGGTGCACGTGGTTCG", "relative binding free energy": -0.335},
      {"sequence": "TTTTCCACGTGGCATG", "relative binding free energy": 0.293},
      {"sequence": "TTTCTCACGTGGTAAT", "relative binding free energy": 0.293},
      {"sequence": "GTCTTCACGTGTGCGG", "relative binding free energy": 1.17},
      {"sequence": "ATTCTCACGTGTTTAA", "relative binding free energy": 1.05},
      {"sequence": "TGATGCACGTGTTGGG", "relative binding free energy": 0.167},
      {"sequence": "AGTATCACGTGATGGA", "relative binding free energy": 0.753},
      {"sequence": "GTTGTCACGTGTTGTC", "relative binding free energy": 0.669},
      {"sequence": "TATTTCACGTGGTGCA", "relative binding free energy": 0.92},
      {"sequence": "TAGTGCACGTGAAGAA", "relative binding free energy": 1.26},
      {"sequence": "AAATTCACGTGTACGG", "relative binding free energy": 0.92},
      {"sequence": "CTGTACACGTGAGTGT", "relative binding free energy": 0.544},
      {"sequence": "TAGATCACGTGTGTAG", "relative binding free energy": 0.46},
      {"sequence": "AAGGGCACGTGGGTAA", "relative binding free energy": -0.962},
      {"sequence": "CTGGTCACGTGGATGT", "relative binding free energy": 0.418},
      {"sequence": "AGATTCACGTGGCTGT", "relative binding free energy": 0.251},
      {"sequence": "TGTCACACGTGTGTGC", "relative binding free energy": 0.669},
      {"sequence": "AAGGGCACGTGTGGTG", "relative binding free energy": -0.46},
      {"sequence": "AGTTTCACGTGAGGTC", "relative binding free energy": 1.42},
      {"sequence": "TCGGGCACGTGAGAGC", "relative binding free energy": 0.753},
      {"sequence": "TGATTCACGTGTAATT", "relative binding free energy": 1.42},
      {"sequence": "AGCTTCACGTGGAGGG", "relative binding free energy": 1.46},
      {"sequence": "GCGTGCACGTGGTAAT", "relative binding free energy": -0.0418},
      {"sequence": "TATGTCACGTGATAGT", "relative binding free energy": 0.92},
      {"sequence": "CATTACACGTGGAGGT", "relative binding free energy": 0.837},
      {"sequence": "TTTTGCACGTGTAATC", "relative binding free energy": 0.586},
      {"sequence": "GTGGACACGTGTAGAA", "relative binding free energy": 0.92},
      {"sequence": "AGGGTCACGTGTACGT", "relative binding free energy": 0.251},
      {"sequence": "AGGAGCACGTGAGTGT", "relative binding free energy": 0.418},
      {"sequence": "AGTGTCACGTGAAGCT", "relative binding free energy": 0.502},
      {"sequence": "TTACGCACGTGTTGGA", "relative binding free energy": -1},
      {"sequence": "GTATGCACGTGAACGG", "relative binding free energy": 0.418},
      {"sequence": "TTTGGCACGTGGACGT", "relative binding free energy": -0.628},
      {"sequence": "ATGGTCACGTGGAGAG", "relative binding free energy": 0.753},
      {"sequence": "TGTAACACGTGAGGAA", "relative binding free energy": 0.879},
      {"sequence": "AGGGCCACGTGGGAGT", "relative binding free energy": -0.377},
      {"sequence": "GGTGTCACGTGGAAAT", "relative binding free energy": 1.46},
      {"sequence": "AAGGGCACGTGAGGTT", "relative binding free energy": 0.628},
      {"sequence": "AGGAACACGTGGCGGG", "relative binding free energy": 0.209},
      {"sequence": "GGGTACACGTGGTTTG", "relative binding free energy": 0.209},
      {"sequence": "TTCTGCACGTGCTGTG", "relative binding free energy": -0.167},
      {"sequence": "TGACGCACGTGTCGGT", "relative binding free energy": -0.502},
      {"sequence": "TACAGCACGTGAGTGT", "relative binding free energy": 0.628},
      {"sequence": "ATGGGCACGTGTGTCA", "relative binding free energy": -0.669},
      {"sequence": "GGAAACACGTGCGGGT", "relative binding free energy": 0.586},
      {"sequence": "GGTATCACGTGAATGG", "relative binding free energy": 1.84},
      {"sequence": "TCGTGCACGTGTCTGG", "relative binding free energy": -0.167},
      {"sequence": "GTAATCACGTGAATGT", "relative binding free energy": 1.38},
      {"sequence": "TTCGGCACGTGTAAGT", "relative binding free energy": 0.502},
      {"sequence": "AGCAGCACGTGTTTTG", "relative binding free energy": -0.293},
      {"sequence": "CGTGCCACGTGCGGGT", "relative binding free energy": -0.46},
      {"sequence": "TGATACACGTGTGGGC", "relative binding free energy": 0.628},
      {"sequence": "TGGTCCACGTGGCTGT", "relative binding free energy": -0.753},
      {"sequence": "TGTGACACGTGATAGA", "relative binding free energy": 0.46},
      {"sequence": "CTTGGCACGTGTGAAT", "relative binding free energy": 0.126},
      {"sequence": "CGAGACACGTGGTTTG", "relative binding free energy": 0.669},
      {"sequence": "GGGGTCACGTGACTTA", "relative binding free energy": 1.34},
      {"sequence": "GGTATCACGTGGCTGC", "relative binding free energy": 1.21},
      {"sequence": "CTAATCACGTGTGGTT", "relative binding free energy": 0.251},
      {"sequence": "TTAGGCACGTGAGATA", "relative binding free energy": 0.669},
      {"sequence": "TAGTTCACGTGGTGGA", "relative binding free energy": 1.26},
      {"sequence": "TTTCTCACGTGTTGAT", "relative binding free energy": 0.962},
      {"sequence": "CGGCACACGTGGGCGG", "relative binding free energy": 0},
      {"sequence": "TAGTGCACGTGTCTAG", "relative binding free energy": 0.377},
      {"sequence": "TTTCGCACGTGCAGTG", "relative binding free energy": -0.126},
      {"sequence": "GTTTTCACGTGAGCTA", "relative binding free energy": 1.38},
      {"sequence": "GGGGCCACGTGATGGA", "relative binding free energy": 0.837},
      {"sequence": "TACGGCACGTGTTGGG", "relative binding free energy": -0.0837},
      {"sequence": "GAGGGCACGTGTTCGG", "relative binding free energy": -0.92},
      {"sequence": "TGGAGCACGTGGGTTA", "relative binding free energy": -0.711},
      {"sequence": "GGCGACACGTGGGGTT", "relative binding free energy": -0.209},
      {"sequence": "GGTGTCACGTGGCCAG", "relative binding free energy": -0.0837},
      {"sequence": "AGGATCACGTGCGGGG", "relative binding free energy": 0.418},
      {"sequence": "TGATGCACGTGTCGAT", "relative binding free energy": -0.167},
      {"sequence": "TAGGGCACGTGCGTCT", "relative binding free energy": -0.293},
      {"sequence": "CTTGGCACGTGTGTGG", "relative binding free energy": -0.335},
      {"sequence": "TTTGTCACGTGGACGC", "relative binding free energy": 0},
      {"sequence": "TGTACCACGTGAGTGT", "relative binding free energy": 0.586},
      {"sequence": "AATGGCACGTGAAGGA", "relative binding free energy": 0.586},
      {"sequence": "GGTGGCACGTGAAGTG", "relative binding free energy": 1.13},
      {"sequence": "TTCTACACGTGCTGGG", "relative binding free energy": 0},
      {"sequence": "ATAGTCACGTGTAAAG", "relative binding free energy": 0.586},
      {"sequence": "TTAGGCACGTGCTGTC", "relative binding free energy": -0.879},
      {"sequence": "CTCGGCACGTGGGAGT", "relative binding free energy": -1},
      {"sequence": "TTCTGCACGTGTAATG", "relative binding free energy": 0.126},
      {"sequence": "TCGGGCACGTGGGTCT", "relative binding free energy": -0.795},
      {"sequence": "GAGTACACGTGTGGTT", "relative binding free energy": 0.628},
      {"sequence": "CTGTTCACGTGCGGAG", "relative binding free energy": 0.837},
      {"sequence": "GTCGTCACGTGGGAGC", "relative binding free energy": 0.209},
      {"sequence": "GTGAACACGTGTGGGC", "relative binding free energy": 0.335},
      {"sequence": "TTTGGCACGTGTCTGT", "relative binding free energy": -0.46},
      {"sequence": "ATATTCACGTGGATGG", "relative binding free energy": 0.837},
      {"sequence": "TTAATCACGTGTTAGG", "relative binding free energy": 0.669},
      {"sequence": "TTATACACGTGTAGCT", "relative binding free energy": 0.418},
      {"sequence": "CGGTTCACGTGTTATG", "relative binding free energy": 0.335},
      {"sequence": "TATGGCACGTGAAAAA", "relative binding free energy": 1.26},
      {"sequence": "AGGTACACGTGTTAAG", "relative binding free energy": 0.418},
      {"sequence": "GTGCTCACGTGTTGGG", "relative binding free energy": 1.3},
      {"sequence": "AAAGACACGTGTTTTG", "relative binding free energy": 0.0418},
      {"sequence": "GCGTGCACGTGTTGAT", "relative binding free energy": -0.628},
      {"sequence": "GTGGACACGTGTATGG", "relative binding free energy": 0.879},
      {"sequence": "GGAAACACGTGTGGGC", "relative binding free energy": 0.209},
      {"sequence": "GAAGGCACGTGGCGGG", "relative binding free energy": -1.05}
    ]}
  ]
}
